Measurements taken from the RNAGym collection of RNA variant scans (doi:10.1093/nar/gkz1192).
The source gives no read counts; variants with many changes may rest on few reads.

B1: CPEB3 Ribozyme (parent)
chain: UAACAGGGGGCCACAGCAGAAGCGUUCACGUCGCAGCCCCUGUCAGAUUCUGGUGAAUCUGCGAAUUCUGCUGUAUAUCUC

Variants of: B1
Assay: self-cleavage, relative activity (ratio to wild type); higher = more cleavage; in vitro, sequencing
Procedure, shortened: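 Barcoded CPEB3 ribozyme mutants, produced by rounds of error-prone PCR, self-cleaved while being transcribed with T7 RNA polymerase for 5 hours at 37°C and during a subsequent 15 min DNase I step before EDTA was added. Sequencing of template-switched cDNA on Illumina gave cleaved and total reads, and DNA sequencing assigned barcodes to variants. Each variant's relative activity is its cleaved/total read fraction divided by the unmutated ribozyme's fraction, averaged across three batches. A variant needed a minimum of 5 reads.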

| Variant | self-cleavage |
| --- | --- |
| UAACAGGAGGCCACAGCAGAGGCGUUCACGUCGCAGCCCCUGUCGGAUACCGGUGAAUCUGCGGAUUCUGCUGUAUAUCUC | 0.05 |
| UAACAGGAGGCCACAGCAGAGGCGUUCACGUCGCAGCCCCUGUCAGAUUCUGGUGGACCUGCGAAUUCUGCUGUAUAUCUC | 0.08 |
| UAACAGGAGGCCACAGCAGAGGCGUUCACGUCGCAGUCCCUGACAGAUUCUGGUGAAUCAGCGAACACUGCUGUAUAUCUC | 0.04 |
| UAACAGGAGGCCACAGCAGAGGCGUUCACGUCCCAGCCCCUGUCAGAUUCUGGUGAAUCUGCGAAUUCUGCUGUAUAUCUC | 0.06 |
| UAACAGGAGGCCACAGCAGAGGCGUUCACGUCGCAGCCCCUGUCAGAUUCUGGUGAAUCUACGAAUACUGCUGUAUAUCUC | 0.06 |
| UAACAGGAGGCCACAGCAGAGGCGCUCCCGUCGCAGCCCCUGUCAGAUUCUGGUGAAUCUGCGAAUUCUGCCGUAUAUCUC | 0.06 |
| UAACAGGAGGCCACAGCAGAGGCGUUCACGUCGCAGCCCCCGUCGGAUUCUGGUGAAUCAGCGAAUUCUGCUGUAUAUCUC | 0.07 |
| UAACAGGAGGCCACAGCAGAGGCGUUCACGUCGCAGCCCCCGUCAGAUUCUGGUGAAUCUGCGAAUUCUGCUGGAGAUCUC | 0.04 |
| UAACAGGAGGCCACAGCAGAGGCGUUCACGUCGCAGCCCCUGUCAGAUCCUGGUGAAUCUGCGAAUUCUGCUGUAUAUCUC | 0.07 |
| UAACAGGAGGCCACAGCAGAGGCGUUCACGUCGCAGCCCCUGUCAGAUCCUGGUGAAUCUGCGAAUUCUGCCGCAUAUCUC | 0.05 |
| UAACAGGAGGCCACAGCAGAGGCGUUCACGUCGCAGCCCCUGUCAGAUUCAGGUGAAUCUGCGAAUUCUGCUGUAUAUCUC | 0.34 |
| UAACAGGAGGCCACAGCAGAGGCGUUCACGUCGCAGCCCCUGUCAGAUUCCGGUGAAUCUGCGAAUCCUGCUGUAUAACUC | 0 |
| UAACAGGAGGCCACAGCAGAGGCGUUCACGUCGCAGCCCCUGUCAGAUUCUGGUGAAUCUGCGAAUUCCGCUGUAUACCUC | 0.06 |
| UAACAGGAGGCCACAGCAGAGGCGUUCACGUCGCAGCCCCUGUCAGAUUCUGGUGAAUCUGCGAAUUCUGCAGUAUAUCUC | 0.14 |
| UAACAGGAGGCCACAGCAGAGGCGUUCACGUCGCAGCCCCUGUCAGAUUCUGGUGAAUCUGCGAAUUCUGCUGUAUACCUC | 0.06 |
| UAACAGGAGGCCACAGCAGAUGCGUUCACGACGCAGCCCCUGUCAGAUUCUGGUGAAUCUGCGAAUUCUGCUGUAUAUCUC | 0.05 |
| UAACAGGAGGCCACAGCAGAUGCGUUCACGUCGCAGCCCCUGUCAGAUUCUGGCGAAUCUGCGAAUCCUGCUACAUAACUC | 0.04 |

| Variant | self-cleavage |
| --- | --- |
| UAACAGGAGGCCACAGCAGAAGCGUUCCCGUCGCAGCCCCUGUCUGAUUCCGGUGAAUCUGCGAAUUCUGCCGUAUAUCUC | 0.07 |
| UAACAGGAGGCCACAGCAGAAGCGUUCGCGUCGCAGCCCCUGUCAGGUUCUGGUGAAUCUGCGAAUUCUGCUGUAUAUCUC | 0.16 |
| UAACAGGAGGCCACAGCAGAAGCGUUCGCGUCGCAGCCCCUGUCAGGUUCUGGUGAAUCUGCGAAUUCCGCUGUAUAUCUC | 0.11 |
| UAACAGGAGGCCACAGCAGAAGCGUUCGCGUCGCAGCCCCUGUCAGAUUCUGGUGAGUCUGCGAAUUCUGCUGUAUAUCUC | 0.1 |
| UAACAGGAGGCCACAGCAGAAGCGUUCGCGUCUCAGCCCCUGUCAGAUUCUGGUGAAUCAGCGAAUUCUGCUGUAUAACUC | 0.05 |
| UAACAGGAGGCCACAGCAGAAGCGUUCGCGUCUCAGCCCCUGUCAGAUUCUGGUGAAUCUGCGAAUUCUGCUGUAUAUCAC | 0.22 |
| UAACAGGAGGCCACAGCAGAAGCGUUCGCGUCGCAGCCCCUGCCGGAUUCUGGUGAAUCUGCGAAUUCUGCUGUAUAUCGC | 0.05 |
| UAACAGGAGGCCACAGCAGAAGCGUUCGCGUCGCAGCCCCUGUCAGACUCUGGUGUAUCUGCGAAUUCUGCUGUAUACCUC | 0.06 |
| UAACAGGAGGCCACAGCAGAAGCGUUCGCGUCGCAGCCCCUGUCAGACUCUGGUGACUCUGCGAAUUCUGCUGUAUAUCUC | 0.04 |
| UAACAGGAGGCCACAGCAGAAGCGUUCGCGUCGCAGCCCCUGUCAGAUUCUGGUGAAUCAGCGAAUUCUGCUGUAUAUCUC | 0.07 |
| UAACAGGAGGCCACAGCAGAAGCGUUCGCGUCGCAGCCCCUGUCAGAUUCUGGUGAAUCUGCGAAUUCUGCAGUACAUCCC | 0.05 |
| UAACAGGAGGCCACAGCAGAAGCGUUCGCGUCGCAGCCCCUGUCAGAUUCUGGUGAAUCUGCGAAUUCUGCUGUAUAACCC | 0.05 |
| UAACAGGAGGCCACAGCAGAAGCGUUCUCGUCGCGGCCCCUGUCAGAUUCUGGUGAAUCUGCUAAUUCUGCAGUAUAUCUC | 0.09 |
| UAACAGGAGGCCACAGCAGAAGCGUUCUCGUCGCAGCCCCUGUCAGAUUCUGGUGUAUCUGCGAAUUCUGCCGUGUAUCUC | 0.05 |
| UAACAGGAGGCCACAGCAGAAGCGUUCUCGUAGCAGCCCCUGUCAGAUUCUGGAGAAUCUGCGAAUUCUGCCGUAUAUCUC | 0.07 |
| UAACAGGAGGCCACAGCAGAAGCGUUCUCGUCGUAGCCCCUGUCAGAUCCUGGUGAAUCAGCAAAUUCUGCUGUAUAUCUC | 0.09 |
| UAACAGGAGGCCACAGCAGAAGCGUUCUCAUCGCAGCCCCUGUCAGAUUCUGGAGGAUCUGCGAAUUCUGCUGUAUAUCUC | 0.07 |
